Laboratory results as given in the antibiotic and cytotoxicity screens of Wong et al. (2023).
The list shows a part of the results.

tested on: HSkMC (human skeletal muscle cells); experiment: cytotoxicity call (relative viability < 0.9); conditions: 10 µM

SMILES	cytotoxicity call
COc1ccc(NC(=O)N(C)C[C@H]2OCCCC[C@H](C)Oc3ccc(NC(=O)C4CCCCC4)cc3C(=O)N([C@@H](C)CO)C[C@@H]2C)cc1	inactive
COc1ccc(S(=O)(=O)N[C@@H]2C=C[C@@H](CC(=O)N3CCC(Cc4ccccc4)CC3)O[C@H]2CO)cc1	inactive
COc1ccc(NC(=O)N(C)C[C@H]2Oc3c(NC(=O)c4cnccn4)cccc3C(=O)N([C@H](C)CO)C[C@H]2C)cc1	inactive
C[C@@H]1CN([C@@H](C)CO)C(=O)Cc2cc(NC(=O)C3CCCCC3)ccc2O[C@H]1CN(C)Cc1ccc(-c2ccccc2)cc1	inactive
C[C@@H]1CN([C@@H](C)CO)C(=O)c2cc(NC(=O)c3ccncc3)ccc2O[C@@H](C)CCCCO[C@@H]1CN(C)S(C)(=O)=O	inactive
C[C@@H]1CCCCO[C@@H](CN(C)Cc2ccncc2)[C@H](C)CN([C@@H](C)CO)C(=O)c2cc(NC(=O)C3CCCCC3)ccc2O1	inactive
COc1ccc(S(=O)(=O)N(C)C[C@H]2OCCCC[C@@H](C)Oc3ccc(NC(=O)Nc4ccc(C(F)(F)F)cc4)cc3C(=O)N([C@H](C)CO)C[C@@H]2C)cc1	inactive
CC(=O)Oc1ccccc1C(=O)Nc1ccccc1	inactive
c1ccc2c(CSc3nc4ccccc4s3)cccc2c1	inactive
NC(=O)[C@@H]1[C@H]2C(=O)O[C@H](c3ccccc3)[C@H](c3ccccc3)N2[C@H](c2ccc(OCCO)cc2)[C@@]12C(=O)Nc1ccc(C#CC3=CCCCC3)cc12	inactive
C[C@H]1CCCCO[C@H](CN(C)S(=O)(=O)c2ccccc2)[C@@H](C)CN([C@@H](C)CO)C(=O)c2cc(NC(=O)Nc3cccc4ccccc34)ccc2O1	inactive
